Drawing on article PMC10726135, this text covers binding signal (log2 normalized intensity) for 93 sequences.

This is one part of the list. At the low end of the ranking the order means little. Measured with an extract: partners may take part in the binding.

This experiment concerns the target T1, HNF4alpha8 (COS-7 nuclear extract) (UniProt P41235-5).
T1 sequence: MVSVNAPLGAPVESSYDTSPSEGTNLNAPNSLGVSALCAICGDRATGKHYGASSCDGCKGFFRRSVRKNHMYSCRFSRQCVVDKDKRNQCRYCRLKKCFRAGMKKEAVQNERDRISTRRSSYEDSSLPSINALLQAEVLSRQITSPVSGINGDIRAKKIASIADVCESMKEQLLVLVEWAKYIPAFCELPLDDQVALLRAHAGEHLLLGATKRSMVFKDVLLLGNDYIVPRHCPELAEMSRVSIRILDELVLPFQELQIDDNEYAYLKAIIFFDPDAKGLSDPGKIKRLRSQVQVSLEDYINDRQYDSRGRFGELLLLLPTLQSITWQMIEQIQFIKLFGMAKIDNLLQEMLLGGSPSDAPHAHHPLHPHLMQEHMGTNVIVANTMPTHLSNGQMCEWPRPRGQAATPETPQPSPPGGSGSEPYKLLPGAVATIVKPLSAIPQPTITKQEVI
Nature of the experiment: protein-binding microarray. The conditions noted are these: COS-7 nuclear extract on double-stranded Agilent 4x180k PBM; binding buffer, salt, pH and temperature not given; high values mean tight binding; double strand, one strand shown; sequences stand for … in …GCCTAGGGAGATTAGAGTATCGGTCGA
For CTATCACTGGGAGATAATGCACTGGTGACT, the binding signal (log2 normalized intensity) was found to be 0.386. To TTACAGGTTGCAGTAAAGAAACTGGCTAAA belongs -1.16. To GAAAACAGAGAAGCCGTGGTGCTGTCCAAG belongs -1.34; to GAATTTTGGACAAGGTAACCCCCAACATTC, 3.79; to GTTGAATGGACGGACAGGTAACGTAAACAA, -1.06. As for GAAAATGCAAGGAAATGGATTGCCTCCTAA, the binding signal (log2 normalized intensity) is -1.22. On to GGATGTGTGATCTTGGGTAAGCCACTGAAC, for which the binding signal (log2 normalized intensity) was found to be 1.3. As for CTTCCCAGCTGCTGGTCAAAGGGCATTACT, the binding signal (log2 normalized intensity) was found to be 5.83. Regarding CTTCTCTTTGAGTCCCAATCCCCCATCTAT, the binding signal (log2 normalized intensity) stood at 4.09. Next, GACCCCTTTCATGAATAAATGACATAGTGA: 2.27. As for GTGGCCAGGCTGCGTTTCAAAGCCAGGACT, the binding signal (log2 normalized intensity) is -1.31. For the sequence TTTTGTGTTAGAGGGTGGTGGGTGAAGGAT, the binding signal (log2 normalized intensity) came to 1.18. Consider ATATGTCTTAAGCTAACATGTACAGTATTG, for which the binding signal (log2 normalized intensity) was determined as 0.993. Regarding TGATGTTAACACAAGTTATTACCGTGATGT, the binding signal (log2 normalized intensity) was determined as 1.13. Take GAATGCTTGTCTAGTAATTGCTACTTCCGG: the binding signal (log2 normalized intensity) is -0.0902. AGTTTTTACTGGACTTGATCCATTCTACCC: the binding signal (log2 normalized intensity) was determined as 1.47. Consider AGAAAACGTTCACGTCTCAAGCTTCAGGAG, for which the binding signal (log2 normalized intensity) was -1.34. Regarding GGACTTGGTAAAGTCAATAATCTAGAAACC, the binding signal (log2 normalized intensity) is 0.338. Take CCCTCCCACGCACTCGCCTGACTCCCTGAC: the binding signal (log2 normalized intensity) was found to be 2.65. CAAGCCCCTGACCAAGGGTCATGCTGGTCT: the binding signal (log2 normalized intensity) was 3.27. With GGTGTGGGGGTGGAGAAGGAAGGGGAAGAT, the binding signal (log2 normalized intensity) is -1.27. Next, ACCCAAGCGGCCATTTACTGACTAAAGGTT: 2.19; ACACTTAGAGATAAGGTAACAGGCCAAAGG: 1.9.

For GGATGGCATGTCTCTGGTCGGGGAGGTGTT, the binding signal (log2 normalized intensity) turned out to be 1.18. Consider ATATCTATATGTTTACATATCACTGTACTC, for which the binding signal (log2 normalized intensity) was 2.31. To GCCTGCATTGGAGGCCCTCTGTTGCTTCAA belongs -1.37; to CCAGCTGGTAAATAAAGGAACTTACGAAGA, -1.25. For the sequence GAGATTCCTCTGCACAATAAAACTTGGTCG, the binding signal (log2 normalized intensity) was found to be 0.0287. For the sequence AAGGGAGTAAAGGTCGTTCTATCGGAGAAC, the binding signal (log2 normalized intensity) turned out to be 4.32.

For GAAGGTCCTTCACTAAAGTTACAAGATCTT, the binding signal (log2 normalized intensity) is -0.246. As to TAACCTTTGGGTGTGTTCAGCGAGGAATGT, the binding signal (log2 normalized intensity) came out at 1.71. Next, CCCTTGATCAAAAACTGCCTAAATCCAAAG: -1.42. As to ACGCTGGTCAGCATCCTGCTTGTGAGACCG, the binding signal (log2 normalized intensity) is -1.41. As for CTTTAGTTCAGGGAAGAGGGCACTCAGGCT, the binding signal (log2 normalized intensity) was -1.29.

For the sequence CGGGGGCCCTTCCCCCCTCTGCAGCCTTAC, the binding signal (log2 normalized intensity) amounted to 3.05.

TCAGCTCATTCAAAGTCCAAAAAGAATCAG: the binding signal (log2 normalized intensity) was found to be 2.2.

Consider CTCCAGACACGGGGATAACACCTGCCTTAG, for which the binding signal (log2 normalized intensity) was -1.38. On to ATTTGTTAAGAACTGGAGTAAAGGTCACTC, for which the binding signal (log2 normalized intensity) worked out at 4.84. With AGTAAGCATGCCTTACCATTGCTTTCTTCC, the binding signal (log2 normalized intensity) is -1.49. GTGGTCCTAAAATTGACCTTTGATCACTCA: the binding signal (log2 normalized intensity) stood at 10.2. On to GACCTTCACCAGATACTGAATCTCCCAGTG, for which the binding signal (log2 normalized intensity) is -1.29. On to CACACCTCCCTTGCACCAGTTTCTCAACAG, for which the binding signal (log2 normalized intensity) was -1.31. With AGCCAAGGAGAGAGGCCTCTAGATAAACCA, the binding signal (log2 normalized intensity) was -1.41.

TGCAAACATTGGTTGCAAAAACAATCAGGG: the binding signal (log2 normalized intensity) was -1.23. GCTTTTGGGCAGAGACTATGTGGTTTTGTA: the binding signal (log2 normalized intensity) turned out to be 1.34.

On to TAAGGTGGGAATGCTGATCAAGTGTCTCTA, for which the binding signal (log2 normalized intensity) is -0.0604. On to GACCTCTGGACCTCATCTTCCTCCCCAATA, for which the binding signal (log2 normalized intensity) worked out at 4.6. Turning to CCCCTAGTATATTGGCTTGGCTGTGTCCCT, the binding signal (log2 normalized intensity) was found to be 1.34.

As for CTCAGGTCAGGGAAGACTGATAAGAAAACT, the binding signal (log2 normalized intensity) is -1.05. For the sequence TTTGCGGCCATCTAGCTACAGGAGAACAAA, the binding signal (log2 normalized intensity) was -1.09.

Turning to ACCCCTGAATTGGTCATAATTCTCAAACTT, the binding signal (log2 normalized intensity) is -0.0236.

Regarding TAAATGAGAAGAAATGATGGGTGCCACTTC, the binding signal (log2 normalized intensity) is -1.33.

For GTGAACTGTGACCTGATGACAAAGGTGAGA, the binding signal (log2 normalized intensity) was 2.24.

For the sequence TCCAAATACGATAATGTCAAACATCTTATA, the binding signal (log2 normalized intensity) was -0.884.

Take AAGATGCAACCCCGTTTACTTTTGTACACA: the binding signal (log2 normalized intensity) came to 1.74. Regarding AGCTGTGTGCTCCTGTAGAATGACCCCCTG, the binding signal (log2 normalized intensity) stood at 5.57. Next, TGAGGCCAGTTTTCCCAAAGGAGCTTTATT: -1.1; GTTCAGGGAAGAGGGCACTCAGGCTCTCAG: -1.19; ACAGCACTGACCTTTGAGAGTCAACACTGA: 3.53. With AGAGCAAGGGTCCAGATTAGAGCACAATGT, the binding signal (log2 normalized intensity) was 0.68.

In the case of CCAGCTGGTAAGTGCAAGGCCCAGCTAGAA, the binding signal (log2 normalized intensity) is -1.34. As for GCATTAACATCAACATGGACTTTGAGTCAT, the binding signal (log2 normalized intensity) was 6.9.

Regarding CTCTGCTGATAGCATAAAGCTAGGAGACAA, the binding signal (log2 normalized intensity) is -1.32. For the sequence CGCTAACTTCCAGATCAAAGGACATTTCTA, the binding signal (log2 normalized intensity) is 0.989. To GGCAAGACTGCCACCTACTGACCAAATGGG belongs -1.47; to TGGAGCCACTATTCATAAAGTTCTCTGGCA, -1.15. Regarding TGGTAATCTCTTTTGTGTTAGAGGGTGGTG, the binding signal (log2 normalized intensity) is 1.51. Regarding GCTAAAAGCAGCATCCCTGATAAACCTGTT, the binding signal (log2 normalized intensity) was -1.36.

Take TTGCAAATAAAAGTTATCACCATCAGATCT: the binding signal (log2 normalized intensity) is -1.38.

In the case of CAGCTGGGGCCCAGGTCGAAGTTTATGTTT, the binding signal (log2 normalized intensity) worked out at 2.45.

For the sequence CCACAGAAACGCAGTCCTGAAAACACACAT, the binding signal (log2 normalized intensity) was -1.34.

Turning to GGAATGTCTGACCAACCTGTCCAAAGGTCA, the binding signal (log2 normalized intensity) was determined as 8.5. On to TTGGCAGATTAGATATATCTGTACTCAAAC, for which the binding signal (log2 normalized intensity) came out at 0.452. Next, AGAAGACAAAACAGCGTACTGTGCTAAAGA: -1.27; TTCCCTTTGATCTTTCCCTTCCTGGCCAAC: 1.15. Regarding AGAGCCTAGTTCATTGCAATTACTCAATAA, the binding signal (log2 normalized intensity) is -1.28. Turning to CCCCCGGACCCAAAGTAAACAAAGATACTC, the binding signal (log2 normalized intensity) stood at 2.88. Next, GAGTAAATACGAACCGTCGTAATGGCTAAG: -1.14.

Regarding TAACTTGAATTGATTGCCAAGAGGGAGGGG, the binding signal (log2 normalized intensity) is -1.38. Consider AGGATGGAATGCTGAAGGGAAGGCTGCCGT, for which the binding signal (log2 normalized intensity) was -1.14. As to AACGAGATGGTCAAGGATCTGGCCAGGCCT, the binding signal (log2 normalized intensity) is -1.37. Regarding AGTGGTTAAGTTTTCGAGGAGTCAAAAGGT, the binding signal (log2 normalized intensity) came out at 1.41. To CCCAAATAGACTTAAGTCTGAATTCTAGTC belongs 0.0755; to ATATGCCGAGAATGCAGCCTTATCTTCCAG, -1.23; to CTGTGGTCATTAATTAACTTGTGTTCAGAG, 1.07. As for GTAGGCTCTCGGGCCAGCTGTACAAATAAA, the binding signal (log2 normalized intensity) was -1.41. With CCAGCATTTCTGTGGACTGCTCCAGTGGAC, the binding signal (log2 normalized intensity) was determined as 1.22. Turning to GGAATGTTGCTGTGCTGCCCTCTTGTGGCC, the binding signal (log2 normalized intensity) worked out at 2.61. For GAGTCGTGGCCTTGCCATTGGAGGTCACCC, the binding signal (log2 normalized intensity) is 3.15. Turning to GATCTTCATGAACTTCTGTCCACAGACTCT, the binding signal (log2 normalized intensity) worked out at 0.169. Regarding AAGGACATTGCCCCCTATGTAAAGGCCTTT, the binding signal (log2 normalized intensity) turned out to be 3.97.

In the case of ACCCCCCAGAGGGCCATCTAGCTTAAAGGT, the binding signal (log2 normalized intensity) is 1.67. Turning to TGATGAACTTTCAAGATGAAGCAAGAGTCC, the binding signal (log2 normalized intensity) was determined as 1.49.
